Measurements published in the supplement of paper PMC10126150.
Sequences with one replicate were seen in a single cluster, so their values are uncertain.

Each sequence was assayed on ATP (assay: switch fluorescence ratio, 500 uM ATP over buffer (Cy3 cluster intensity, sum of 5 cycles each) (fold (ratio)); higher = stronger signal-on switching upon ATP binding; sequences stand for … in TCGTCGGCAGCGTCAGATGTGTATAAGAGACAGTTTTTTTTTTTTTTTTTTTTTTTTT…TC). Details: aptamer strand: ATP DNA aptamer (quencher-CACCTGGGGGAGTATTGCGGAGGAAGG + anchor), 100 nM annealed; ATP concentration: 500 uM; one replicate.
In short: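 Exposure to 500 uM ATP lasted 15 min at 22 °C before imaging, and a selection-buffer image was taken beforehand, for Cy3-labelled switching-strand clusters on a modified Illumina MiSeq flow-cell annealed to 100 nM quencher-labelled ATP aptamer. Five buffer/ATP cycles were run with NaOH stripping and re-annealing between them. The fluorescence ratio per cluster is summed target-cycle over summed buffer-cycle Cy3 intensity, averaged per switch-domain sequence. Clusters outside 100-1000 RFU were excluded.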

Sequence	switch fluorescence ratio
GACACTAAAT	1.03
GTCGTGCGGA	1.07
GGGGTTGAGA	0.972
TAACGGTGGC	1.06
AGGAATATCG	1.02
TGCCCCCGCT	1.11
GCTGGCAAAT	1.02
TCAAGTGAAC	0.991
GGGATCATG	1.03
ATTATAATAT	1
CTTAATATTG	1.03
TAGGTCTGTA	1.03
GAACATAGCT	1
TGGATTCGTG	0.996
CTGATTCTGG	0.942
TGCTGACAAG	0.99
ATTGTGTTA	0.979
GTGGGTCAGA	1.03
TAGCTCTTGC	1.01
TACAAGTCTG	0.999
CAATCGCCT	1.07
GATGCCCTTT	1.03
CAAGCCTAGG	1.05

Sequence	switch fluorescence ratio
GTTAAGTAGA	1.03
AACGGGTGGC	1.16
GCGGTCGTTG	1.01
AACTTTTGAC	1.04
AATTGGGATC	0.986
GGATGACAAA	1.03
ATTGTGGTAT	0.961
TTTTCCCACT	1.08
ATGGCTTGTT	0.966
TTCACCCTGT	0.985
AAGGTGTTAT	1.07
ATGAAAGAAG	0.977
TTTCTCCCCG	1.75
TGCAGTACGC	1.41
ATAACTCACG	1.3
GTGGACGGCC	1.06
GCGTTGCCAC	1
TTTGTGCGTA	1.08
CTGAGCTGGG	1
AATCTTAG	1.01
GGAGATTCGC	1.02
TGAGGGGACG	1.16
AGACTGGGG	1.11

Sequence	switch fluorescence ratio
GGTTCATGAA	1.08
TGTATGCGTC	0.969
AGCTCCGGAT	1.12
GGTGATTTTC	1.02
ACGTGCCGG	0.995
TTTTCGTCG	0.998
ACAGACGC	1.14
TGTTTCGTCT	1.1
GCGCTATTGT	1.02
GTAAATGTTC	1.02
ATTCTCCTTT	0.951
TGACAGGATC	0.996
GCAGGGGCTT	1.03
ATTATTGTA	1.03
AGCTTAGACG	0.971
ATGCGGACGT	0.988
TCGGCAGATA	1.02
GCCATAAAGT	1.02
GTCAGGCCTC	0.995
CGGCTCCGAA	1.03
TCATATCCTG	1
TCGGGACC	0.992
CGTGGGTCAC	1.01

Sequence	switch fluorescence ratio
GCACGTAGC	1.1
CCAAATACAT	1.08
TCAAATACCT	1.27
GTATTAGTCA	0.981
ATTTTCTCCT	1.03
GCCAAAAGTT	1.05
AGCGACGGGT	1.01
CTTAGGCTGC	0.997
GTGGGGTTAA	1
CTATGAGCAT	1.12
TTGCAGCGTT	0.985
ACGCTTCCGA	1.46
GTTGCGATGC	2.41
AGCTCATCGA	0.994
ATATGTTGCT	0.975
GTCGCCCGTG	1.01
CAGTATGGGC	1.02
AAAGCTTTAC	1.35
ATATTATTTG	1.01
ACAACGGCTG	1.01
GCCAATGGAA	1.05
CTGTCGTGGT	1
GGTGGTTTGA	0.986

Sequence	switch fluorescence ratio
TCTAAGATTA	1.07
GGTGGGCGCG	0.978
TTAATTAATC	0.985
ACTGTATGGG	1.14
AACGGGGCAG	1
AGTTGTTAG	1.02
TAGGCATCGG	0.981
TTAAAGGGAA	1.02
ACAGCGATTA	1.1
GCGTTGTACC	1.02
GCAGCTACAA	1.05
TTCTTAACCA	1
AGCAACCGAT	1.14
ACATATCGTG	0.956
CCATTTGTAT	1.02
AGGGAAGTGT	0.987
GTATATTACT	1.03
TTACCTGTGG	0.952
AGCTGACCTA	1.03
GTGCCTGGTC	0.988
CTTGGGGTCC	0.962
AGCTGCCCAT	0.942
TATTACGTAG	1.04

Sequence	switch fluorescence ratio
TGCCACCGGG	1.05
GTTATGATGG	1.01
CACGTAGGCC	1.04
CGCAGGTGCA	2.51
TTGTCGTCCG	0.985
GTCGTTCGTA	0.996
TTCCCTACCT	1.31
CAATTGTTTT	1.02
AGTTATAAAT	0.989
CGTGATTTAC	1.13
CTATTAAAAT	0.984
GTGGTAAAGA	0.987
CCTGAAGGAT	0.971
CCTGAAATTT	0.986
TGGCGTTGTC	0.93
GACGGCTTTG	1.03
AGGTGCTGAG	1.01
TATTGGTCCT	0.959
CCGTCAGATT	1.06
GATTACCGAG	1.1
ATCTTAGAG	1.01
TACGGAGCG	1.47
CAGTGAGGCA	0.985

Sequence	switch fluorescence ratio
CGACGCTTGA	2.28
GCCCGGATGT	1.04
CAGACCTTTC	2.26
CGTATAAATG	0.961
TAGATTCTCT	0.999
TTAACCATAG	0.976
ATATGGTCTT	1.02
GATTCTACT	1.02
ATCCCTCCCG	1.18
CCATGGTACT	1.08
CTCGTGGGGT	0.991
CTGGACAAG	0.996
GCCTAAAGGC	0.967
TTGAGAAGAA	1
ATTATTAGAG	1.01
GGTTCCAAGA	0.968
AAAACGTTGG	1.03
TCCTATTCTA	1.01
TCTGGATGCC	1.02
